Reference: PubChem BioAssay AID1963872 (Molecular Pharmacology Branch, DTP, NCI, 2024)
For part of its entries the source gives two or more results. This is not the full list of results. There may be further records. The records of an entry are repeats across runs, samples, wells, individuals or studies. Brackets with × stand for listed records that agree.

System: KRAS patient-derived spheroids with HUVEC/MSC, viability
Assay: Anticancer human tumor 519858-162-T-J1-PDC patient-derived colon adenocarcinoma cell line growth inhibition [KRAS2]
Conditions: for viability, T/C: stronger effect = lower value; for IC50: compound alone
Source text: Multicellular complex tumor spheroid response to RAS pathway inhibitors in combination with a targeted agents in patient-derived cell lines with oncogenic KRAS variants from multiple cancer types
A high-throughput screen of multi-cell type tumor spheroids was designed to identify active combinations of targeted small molecules and KRAS pathway inhibitors. Complex spheroids include a stromal component modeled by human endothelial cells (HUVEC) and fibroblasts modeled by human mesenchymal stem cells (MSCs). The concentration ranges selected for each drug and investigational agent were based upon clinically achievable concentrations if the clinical Cmax of the agent was known.
Compounds. The drugs and investigational agents: BI-3406 (NSC825286), BAY-293 (NSC824723), batoprotafib (TNO155; NSC825523), sotorasib (AMG 510; NSC818433), MRTX1257 (NSC819558), elimusertib (BAY 1895344; NSC800525), molibresib (GSK525762; NSC774829), temuterkib (LY3214996; NSC803410), venetoclax (NSC766270), alisertib (NSC759677), olaparib (NSC753686), talazoparib (NSC767125), erdafitinib (NSC781556), ipatasertib (NSC767898), cabozantinib (NSC761068), nintedanib (NSC756659), abemaciclib (NSC768073), docetaxel (NSC628503), trametinib (NSC758246), and sapanisertib (NSC764658) were obtained from the National Cancer Institute (NCI) Developmental Therapeutics Program Chemical Repository. The FDA-approved anticancer drug set is available from the Developmental Therapeutics Program. […] The stock solutions were prepared in dimethyl sulfoxide (DMSO, Sigma-Aldrich, St. Louis, MO, cat. D2650) at 800-fold the tested concentration and stored at -70 degrees C prior to their use. All drugs and investigational agents were tested over a range starting from a high concentration at or near the clinical Cmax and decreasing in half-log increments. If the clinical Cmax for an agent had not been determined, the highest concentration tested was 10 microM.
Cell Culture. All cells were maintained in an incubator at 37 degrees C and 5% CO2 with 95% humidity. The PDC lines were cultured according to standard operating procedures established by the NCI PDMR (https://pdmr.cancer.gov/sops/default.htm). Briefly, all PDCs were thawed and cultured in Matrigel-coated flasks prepared with a working solution of 1X Ham's F-12 nutrient mix, without supplementation (Invitrogen, Waltham, MA, cat. 11765054), 100 U/mL penicillin-streptomycin (Invitrogen, cat. 15140122), and 2.5% Matrigel (Corning Inc., Corning, NY, cat. 354248) for the first three passages. All PDCs were cultured in complete DMEM/F-12 media containing advanced DMEM/F-12 (Invitrogen, cat. 12634028), 4.9% defined fetal bovine serum, heat inactivated (HyClone Laboratories Inc., Logan, UT, cat. SH30070.03HI), 389 ng/mL hydrocortisone (Sigma-Aldrich, cat. H4001), 9.7 ng/mL human EGF recombinant protein (Invitrogen, cat. PHG0313), 23.4 microg/mL adenine (Sigma-Aldrich, cat. A2786), 97.3 U/mL penicillin-streptomycin (Invitrogen, cat. 15140122), 1.9 mM L-glutamine (Invitrogen, cat. 25030081), and 9.7 microM Y-27632 dihydrochloride (Tocris Bioscience, Bristol, United Kingdom, cat. 1254). The PDCs were cultured in complete DMEM/F12 media without 9.7 microM Y-27632 dihydrochloride for at least two passages prior to the screen. The established cell line HOP-62 was cultured in RPMI 1640 medium, HEPES (Invitrogen, cat. 22400105) with 10% defined fetal bovine serum (HyClone Laboratories Inc., cat. SH30070.03) and 2 mM L-glutamine (Invitrogen, cat. 25030081). The pooled donor HUVEC were cultured in endothelial cell growth medium 2 (PromoCell, Heidelberg, Germany, cat. C-22011) and the hMSC were cultured in mesenchymal stem cell growth medium 2 (PromoCell, cat. C-28009). For all experiments, HUVEC and hMSC were used at passages </=5, while the malignant cell lines were used at passages </=15. […]
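Note: compound exposure lasted seven days before readout.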
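Throughout, for viability, T/C: 100% = DMSO vehicle control viability.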

Row | Structure (SMILES) | viability, T/C (compound alone 0.0316 µM) | viability, T/C (compound alone 0.316 µM) | viability, T/C (compound alone 1 µM) | viability, T/C (compound alone 3.16 µM) | viability, T/C (compound alone 10 µM) | viability, T/C (compound alone 0.1 µM) | viability, T/C (compound alone 0.000316 µM) | viability, T/C (compound alone 0.001 µM) | viability, T/C (compound alone 0.00316 µM) | viability, T/C (compound alone 0.01 µM) | IC50
1 | COc1cc(Nc2ncc3c(n2)-c2ccc(Cl)cc2C(c2c(F)cccc2OC)=NC3)ccc1C(=O)O | 101, 104, 73.1, 97.5, 96.4% | 90.8, 104, 81.5, 70.1, 85.8% | 86.6, 74, 92.6, 83.2, 56.9% | 105, 101, 65.5, 113, 73.6% | 112, 119, 105, 88.6, 69.9% |  |  |  |  |  | 
2 | C=CC(=O)N1CCN(c2nc(=O)n(-c3c(C)ccnc3C(C)C)c3nc(-c4c(O)cccc4F)c(F)cc23)C(C)C1 (centres undefined) |  | 65.5, 84.9, 86.2, 76.7, 93.5, 77.6, 84.5, 96.3, 93.3, 88, 88.4, 69.8, 112, 89.3, 104, 95.5, 87% | 82.6, 73.5, 94, 95, 104, 76.3, 94.2, 83.8, 77, 79.5, 90.1, 80, 82.4, 92.9, 85, 98.6, 92.3% | 84.9, 111, 85.8, 78.3, 80.5 (2×), 77.1, 78, 98.5, 89.2, 85.2, 92.9, 71.9, 102, 105, 62.5, 74.7% | 71.2, 96.7, 93, 125, 83.3, 83 (2×), 102, 89.1, 79.8, 87.2, 76, 91.8, 86.3, 44.7, 61.6, 80.7% | 86.7, 89.3, 73.8, 75.1, 105, 90.8, 95.2, 93.5, 81.1, 70.3, 104, 80, 97, 99, 97.2, 96.3, 101% |  |  |  |  | 
3 | O=C(c1cc(Cc2n[nH]c(=O)c3ccccc23)ccc1F)N1CCN(C(=O)C2CC2)CC1 | 85.8, 72.1, 110, 66.3, 93% | 84, 89.4, 89.9, 73, 112% | 78.2, 86, 115, 83.5, 76.6% | 80.3, 110, 103, 140, 116% | 89.4, 79, 122, 88.3, 107% | 76.9, 91.2, 101, 105, 102% |  |  |  |  | 
4 | CN(C)C/C=C/C(=O)Nc1cc2c(Nc3ccc(F)c(Cl)c3)ncnc2cc1O[C@H]1CCOC1 | 119, 101, 83.7, 88.5, 64.1% |  |  |  |  |  | 83.7, 100, 76.7, 113, 84.2% | 87.3, 94.4, 95.9, 88.2, 63.1% | 93.2, 88, 114, 94.8, 98.8% | 88.3, 108, 77.4, 107, 88.9% | 
5 | CC1COCCN1c1cc(-c2ccnn2C)c2ccnc(-c3ccn[nH]3)c2n1 (centres undefined) |  | 101, 77.9, 86.3, 59.5, 74.9% | 67.3, 50.6, 69.6, 30.1, 66.7% | 45.1, 37.2, 34.7, 66.9, 44.5% |  | 86.7, 67.2, 81.2, 62.8, 101% |  |  |  |  | 2.45 µM, 1.3 µM, 1.91 µM, > 3.16 µM, 2.36 µM
6 | CC(C)n1nc(-c2ccc3oc(N)nc3c2)c2c(N)ncnc21 | 82.4, 51.9, 68.4, 73.5, 85.6% |  |  |  |  | 58.9, 50.8, 48.9, 70.1, 84.2% | 74, 83, 103, 91, 104% |  | 69.5, 82.4, 107, 75.8, 92.8% | 71.8, 63.8, 60.6, 88.2, 97.7% | 
7 | CC(=O)OC12COC1CC(O)C1(C)C(=O)C(O)C3=C(C)C(OC(=O)C(O)C(NC(=O)OC(C)(C)C)c4ccccc4)CC(O)(C(OC(=O)c4ccccc4)C21)C3(C)C (centres undefined) | 98.8, 73.3, 87.5, 95, 102% | 114, 94.6, 100, 123, 126% | 64.1, 87.8, 72.2, 89.3, 85.5% |  |  |  |  |  |  |  | 
8 | CC(C)NCC(C(=O)N1CCN(c2ncnc3c2C(C)CC3O)CC1)c1ccc(Cl)cc1 (centres undefined) | 90.1, 84.8, 83.6, 108, 76.5% |  |  | 82.6, 87.2, 91.1, 49.5, 81.2% |  | 108, 90.7, 102, 93.3, 68.1% |  |  |  |  | 
9 | Cn1nccc1Nc1nccc(-c2cc3c(s2)C(C)(C)N(CCN2CCOCC2)C3=O)n1 |  |  |  | 77.8, 58.6, 68.4, 63.7, 47.6% |  |  |  |  |  |  | 5.33, 4.31, 6.07, 4.83, 1.13 µM
